From publication PMC4336329 (PLoS ONE, 2015) come the findings set out here.

The whole screen tested about 310,000 compounds, of which about 14,000 (4.5%) showed an effect of 50% or more. The effect is printed as a negative number. This is one part of the list.
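Also: peak tail current of the secondary pulse compared with the same well before compound.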

human ether-à-go-go-related gene (hERG) potassium channel, sequence (Q12809 whole entry, looked up): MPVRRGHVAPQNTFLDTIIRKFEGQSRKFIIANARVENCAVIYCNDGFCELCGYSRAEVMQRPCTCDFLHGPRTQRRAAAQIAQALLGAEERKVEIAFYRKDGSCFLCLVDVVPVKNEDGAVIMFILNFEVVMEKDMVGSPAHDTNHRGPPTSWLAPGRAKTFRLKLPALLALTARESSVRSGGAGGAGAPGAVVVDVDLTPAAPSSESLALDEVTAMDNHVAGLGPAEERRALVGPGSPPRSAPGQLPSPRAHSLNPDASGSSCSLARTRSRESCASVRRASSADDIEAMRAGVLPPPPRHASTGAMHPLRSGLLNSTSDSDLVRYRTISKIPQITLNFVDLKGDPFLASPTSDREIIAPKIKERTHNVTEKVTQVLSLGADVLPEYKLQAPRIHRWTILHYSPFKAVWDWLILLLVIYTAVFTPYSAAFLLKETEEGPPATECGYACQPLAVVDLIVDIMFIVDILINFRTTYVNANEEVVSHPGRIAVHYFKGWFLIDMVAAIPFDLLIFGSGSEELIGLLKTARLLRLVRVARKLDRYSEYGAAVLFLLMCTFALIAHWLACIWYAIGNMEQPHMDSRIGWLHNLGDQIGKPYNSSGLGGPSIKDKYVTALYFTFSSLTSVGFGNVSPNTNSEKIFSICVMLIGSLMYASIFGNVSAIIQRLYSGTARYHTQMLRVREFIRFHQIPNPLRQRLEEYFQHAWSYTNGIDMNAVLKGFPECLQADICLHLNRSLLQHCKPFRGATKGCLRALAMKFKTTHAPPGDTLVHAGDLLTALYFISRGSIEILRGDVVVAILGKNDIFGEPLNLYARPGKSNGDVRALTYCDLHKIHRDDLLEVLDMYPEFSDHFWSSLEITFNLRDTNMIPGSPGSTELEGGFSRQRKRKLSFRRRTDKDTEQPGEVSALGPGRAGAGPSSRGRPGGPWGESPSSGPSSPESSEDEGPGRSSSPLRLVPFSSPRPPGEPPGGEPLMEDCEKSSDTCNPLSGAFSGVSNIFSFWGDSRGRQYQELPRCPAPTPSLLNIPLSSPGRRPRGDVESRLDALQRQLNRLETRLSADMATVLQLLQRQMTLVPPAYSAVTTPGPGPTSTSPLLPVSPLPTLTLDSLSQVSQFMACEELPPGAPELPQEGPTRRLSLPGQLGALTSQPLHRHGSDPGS

This assay has as its target human ether-à-go-go-related gene (hERG) potassium channel (human, UniProt Q12809). Put plainly: primary screen, population patch clamp on CHO cells stably expressing hERG.
With `COc1ccc2c(c1)NC(c1ccc(N(C)C)cc1)c1cccn1-2` (centres unmarked), the “hERG current change (%, negative = inhibition) at 10uM” value came to 12.5%.
The same measure for `COc1ccccc1NC(=O)CSc1nnc(-c2ccccc2)o1`: -0.144%; for `CSc1ccccc1NC(=O)CN(C)C(=O)Cc1c[nH]c2ccccc12`: -0.585%; for `COc1ccc(S(=O)(=O)NC2CC2)cc1Br`: 25.7%.
The result for `CC(C)NC(=S)N/N=C/c1cc(Br)ccc1O` reads 17.5%; that for `COc1ccc(N(C(=O)c2snc(C(N)=O)c2N)C(C(=O)NCc2ccccc2)c2ccc(F)cc2)c(OC)c1` (centres unmarked), -0.146%; that for `O=C(c1ccc([N+](=O)[O-])cc1)N1CCc2ccccc2C1`, -44.7%.
The same measure for `CCOc1ccc(/C=N/OCC(=O)Nc2ccc(OCc3ccccc3)cc2)cc1OC`: 6.71%; for `O=C(CC1Oc2ccccc2NC1=O)NC1CC1` (centres unmarked): 5.67%; for `NS(=O)(=O)c1ccc(CCNC(=O)CN2CCN(Cc3cccc4ccccc34)CC2)cc1`: 5.29%.
For the molecule `O=[N+]([O-])c1c(NCCCO)cc(N2CCN(Cc3ccc4c(c3)OCO4)CC2)c2nonc12`, the “hERG current change (%, negative = inhibition) at 10uM” value was -40.2%.
The same measure for `COc1ccc(NC(=O)C(=O)NCCN2CCN(C(=O)c3ccc(C)cc3)CC2)cc1`: -75.4%; for `CC(=O)Nc1ccc(Cl)c(-c2nc3ncccc3o2)c1`: -2.77%; for `Oc1c(CN2CCCCC2)cc(COCc2ccccc2)c2cccnc12`: -5.83%.
The same measure for `Cc1ccc(C(=O)NCC(=O)NCCCc2ccccc2)s1`: 1.14%; for `Cc1ccc(/C=N/NC(=O)CN2CCN(S(=O)(=O)c3ccc(Br)cc3)CC2)s1`: -58.9%; for `Cn1c(CN2CCOCC2)nnc1SCc1ccccc1`: -14.9%.
For the molecule `COc1ccccc1NC(=S)N(Cc1ccccc1)Cc1ccccn1`, the “hERG current change (%, negative = inhibition) at 10uM” value is listed as -13.4%.
The same measure for `CC(C)(C)C(=O)/C(=C/c1ccc(Cl)cc1)n1cncn1`: 5.98%.
With `N#Cc1ccc(NC(=O)CN2CCN(c3ccccn3)CC2)cc1`, the “hERG current change (%, negative = inhibition) at 10uM” value is listed as -71.9%.
The same measure for `COc1ccc(CC(=O)NCC2CCCN(Cc3ccc(OC(F)(F)F)cc3)C2)cc1` (centres unmarked): -63.7%.
Consider `CCOCCCNC(=O)C(NC(=O)c1cnccn1)c1ccc(C)cc1` (centres unmarked), for which the “hERG current change (%, negative = inhibition) at 10uM” value turned out to be 30.4%.
The result for `CC(CN1CCOCC1)OC(=O)C(c1ccccc1)c1ccccc1` (centres unmarked) reads -9.65%; that for `CCN(CC(=O)Nc1ccccc1C(F)(F)F)C(=O)Cc1sc(C)nc1-c1ccc(F)cc1`, -10.2%; that for `Cc1ccc(-c2cc(C(F)F)n3ncc(C(=O)N4CCN(c5ccccn5)CC4)c3n2)cc1`, -9.65%.
The result for `COC(=O)C1=C(C)N(Cc2ccccc2)C(=O)/C1=C\c1ccco1` reads 2.06%.
The same measure for `COC(=O)c1sccc1-n1cccc1C(=O)C(=O)N1CCCC1`: 14.3%; for `CN(CC(=O)Nc1cccc(F)c1)C(=O)CSc1ccc(Br)cc1`: 0.0875%; for `CC(C)NC(=O)c1ccccc1NC(=O)c1ccccc1N(C)S(C)(=O)=O`: 5.13%.
Regarding `CCCCc1ccc(NC(=O)C(C)CC)cc1` (centres unmarked), the “hERG current change (%, negative = inhibition) at 10uM” value was -50.5%.
The result for `O=C(COc1ccccc1F)Nc1c2c(nn1-c1ccccc1)CS(=O)(=O)C2` reads -35.7%.
The same measure for `Cc1ccc(CNS(=O)(=O)NCc2cccs2)cc1`: 9.08%; for `COc1cccc(C(=O)Nc2cccc(NC(=O)c3cccs3)c2)c1`: -12.3%; for `CN(C)c1ccc(C2/C(=C(/O)c3ccc(Br)cc3)C(=O)C(=O)N2C)cc1` (centres unmarked): 10.5%.
In the case of `COc1cccc(CN2CCN(C(=O)c3cc(-c4ccccn4)nc4ccc(Cl)cc34)CC2)c1`, the “hERG current change (%, negative = inhibition) at 10uM” value came to 17.1%.
The same measure for `Cc1ccc(N2CCN(S(=O)(=O)c3c(C)noc3C)CC2C)cc1` (centres unmarked): -9%; for `CCCCn1c(O)c(C(CC)=NCc2ccc(F)cc2)c(=O)[nH]c1=O`: -35.4%; for `CC1Nc2ncnc(N3CCN(c4ccccc4)CC3)c2N(Cc2ccc(Br)cc2)C1=O.O=C(O)C(F)(F)F` (centres unmarked): -5.35%.
The same measure for `CCn1c(C)c2c(C)nnc(C)c2c1C`: 11.3%; for `CCCS(=O)(=O)c1nc(S(=O)(=O)c2ccc(C)cc2)c(N2CCN(CCO)CC2)s1`: -3.1%.
The result for `CC(=O)c1c(C)[nH]c(C(=O)COC(=O)c2ccc(Cl)nc2)c1C` reads 16.6%; that for `O=C(CCCn1nnnc1CN1CCOCC1)N1CCC(c2ccccc2Cl)C1` (centres unmarked), -1.19%; that for `CC(=O)N1CCc2cc(S(=O)(=O)NCCN3CCC(C)CC3)ccc21`, 10.4%.
`CCOC(=O)CNC(=O)CSc1nc2cccnc2n1C`: the “hERG current change (%, negative = inhibition) at 10uM” value worked out at 7.54%.
In the case of `O=C(O/N=C1\CCS(=O)(=O)c2sccc21)c1ccc(F)cc1`, the “hERG current change (%, negative = inhibition) at 10uM” value came to 45%.
The result for `COc1ccc(N2C(=S)N(C(=O)c3ccccc3)C(=Nc3ccccc3)C2=Nc2ccccc2)cc1` reads -3.16%.
Consider `Cc1ccc2nc(-c3ccccc3O)c(Nc3ccc4c(c3)OCCO4)n2c1`, for which the “hERG current change (%, negative = inhibition) at 10uM” value came to 9.98%.
The result for `CC(=O)Nc1ccc(NC(=O)CCCc2c[nH]c3ccccc23)cc1` reads 22.6%; that for `CCC(=O)Nc1nnc(CCc2ccccc2)s1`, 2.02%; that for `O=C(NNC(=S)NC(=O)c1ccccc1[N+](=O)[O-])c1ccccc1[N+](=O)[O-]`, 15.1%.
The result for `O=C(CCCN1C(=O)/C(=C/c2ccc3c(c2)OCO3)SC1=S)Nc1ccc(C(=O)O)cc1` reads -1.02%.
The same measure for `CC1=NCCN1S(=O)(=O)c1cccc([N+](=O)[O-])c1`: 14.6%; for `CCOC(=O)N1CCN(C(=O)C2CCN(S(=O)(=O)c3ccc(OCC)cc3)CC2)CC1`: -21.7%; for `C=CCn1c(COc2ccccc2-c2ccccc2)nnc1SCC(=O)NC(=O)NCc1ccco1`: 22.2%.
As to `O=C(CSc1nc(-c2ccccc2)c(-c2ccccc2)[nH]1)NCc1ccco1`, the “hERG current change (%, negative = inhibition) at 10uM” value was -1.63%.
In the case of `O=C(C1CC1)N1CCc2cc(Br)cc(S(=O)(=O)NCc3ccccn3)c21`, the “hERG current change (%, negative = inhibition) at 10uM” value is 11.1%.
The same measure for `COC(=O)c1ccc(CSc2nc3ccccc3[nH]2)o1`: 5.04%.
As for `COc1ccc(OCc2cc(C(=O)N(C)Cc3cc(C4CC4)n[nH]3)no2)c(Cl)c1`, the “hERG current change (%, negative = inhibition) at 10uM” value is -33%.
The same measure for `COCC(C)NS(=O)(=O)c1ccc(NC(=O)C(Cc2ccccc2)NC(N)=O)cc1` (centres unmarked): 8.59%; for `CS(=O)(=O)C1=NSC2=NC(=O)/C(=C\c3ccc(OS(=O)(=O)c4ccccc4)cc3)C(=N)N21`: 21.5%; for `COc1ccc(NC2CCCN(C(=O)c3cccc(C(F)(F)F)c3)C2)cc1OC` (centres unmarked): 0.146%.
The same measure for `CCOc1ccc(OCc2ccc(C(=O)N3CCOCC3)cc2)cc1`: 9.68%; for `O=C(COC(=O)c1ccc(O)cc1)Nc1ccc(Cl)cc1C(=O)c1ccccc1`: -4.15%; for `Cc1cc(C=NCCO)c(C)n1-c1cc(Cl)ccc1Cl`: -3.53%.
The same measure for `Cc1nn(Cc2ccccc2)c(Cl)c1C(=O)OCC(=O)Nc1cccc2ccccc12`: 8.73%.
Regarding `O=C(O)c1c[nH]c2ccc(S(=O)(=O)N(CCCl)CCCl)cc12`, the “hERG current change (%, negative = inhibition) at 10uM” value came to 10.9%.
The same measure for `CCOC(=O)c1c(C)[nH]c(C=O)c1Cc1cccc(Cl)c1`: 6.47%.
The result for `COc1ccc(Cl)cc1NC(=O)CN(C)CC(=O)Nc1ccc(C)cc1Br` reads 6.5%; that for `Cn1nccc1/C=N\NC(=O)c1ccc(Cl)cc1`, 26.9%; that for `O=C1CC(N2CCN(Cc3ccccc3)CC2)C(=O)N1CCc1ccccc1` (centres unmarked), -27.6%.
The same measure for `CC(=O)c1cccc(N(C(=O)CNC(=O)c2ccco2)C(C(=O)NC2CCCC2)c2ccncc2)c1` (centres unmarked): 0.635%; for `CC(C)C[C@H](N)c1nnc(S(=O)(=O)Cc2cccc(F)c2)o1.Cl`: 4.34%; for `Cc1ccccc1NC(=O)c1cc[n+]([O-])cc1`: 27.6%.
With `C=CCOC(=O)C1=C[C@H](c2ccc(Br)cc2)[C@@H](CCCO)[C@H](OCC)O1`, the “hERG current change (%, negative = inhibition) at 10uM” value is given as -55.3%.
The same measure for `CC(=O)c1cc(C#N)c(NCCCN(C)C)nc1C`: 5.02%; for `CC(=O)N1CCN(Cc2ccc(Cl)nc2)CC1`: 18.5%.
As to `CCCOc1ccc(C2NC(=O)NC(c3ccccc3)=C2C(C)=O)cc1OCC` (centres unmarked), the “hERG current change (%, negative = inhibition) at 10uM” value is on record as -5.34%.
With `Cc1cc(C)c(S(=O)(=O)Nc2nnc(C)s2)c(C)c1`, the “hERG current change (%, negative = inhibition) at 10uM” value is on record as 1.72%.
In the case of `CN1CCN(C(=O)/C(=C/c2cccc([N+](=O)[O-])c2)NC(=O)c2ccccc2)CC1`, the “hERG current change (%, negative = inhibition) at 10uM” value is on record as -72.6%.
The same measure for `O=C(COC(=O)c1ccccc1Br)NCc1ccccc1`: -8.23%; for `O=C(CSc1nc2ccccc2o1)N1CCN(C(=O)c2ccco2)CC1`: -33.1%.
The result for `COc1ccccc1N1CCN(C(=O)c2oc3ccc(F)cc3c2C)CC1` reads 2.12%; that for `CCOc1cc(N2CCOCC2)c(OCC)cc1NC(=O)Cc1cn2ccsc2n1`, 3.99%.
The same measure for `CSc1ccc(CNC(C)C(O)c2ccccc2)cc1.Cl` (centres unmarked): -51.4%.
Turning to `Cc1ccc(S(=O)(=O)CCC(=O)Nc2ccccc2C)cc1`, the “hERG current change (%, negative = inhibition) at 10uM” value came to 11.6%.
The same measure for `C/C(CC(=O)NC1CCCCC1)=N\NC(=O)Cc1ccc(-c2ccccc2)cc1`: 25.6%.
